Measured values reported in article PMC6919601, “Identification of Plasmodium dipeptidyl aminopeptidase allosteric inhibitors by high throughput screening” (PLoS ONE, 2019).
Hit rate of the full screen: of about 110,000 compounds, about 230 (0.21%) showed an effect of 50% or more. This is one part of the list.
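Further: 30 min substrate incubation versus DMSO and 10 µM JCP410 controls.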

These compounds were tested against DPAP1 (Plasmodium falciparum, UniProt Q8IIJ9) (assay: primary screen, percent inhibition; read by cleavage of a fluorogenic dipeptide substrate; higher = more effect of the substance).
Sequence of DPAP1 (Q8IIJ9 whole entry, looked up): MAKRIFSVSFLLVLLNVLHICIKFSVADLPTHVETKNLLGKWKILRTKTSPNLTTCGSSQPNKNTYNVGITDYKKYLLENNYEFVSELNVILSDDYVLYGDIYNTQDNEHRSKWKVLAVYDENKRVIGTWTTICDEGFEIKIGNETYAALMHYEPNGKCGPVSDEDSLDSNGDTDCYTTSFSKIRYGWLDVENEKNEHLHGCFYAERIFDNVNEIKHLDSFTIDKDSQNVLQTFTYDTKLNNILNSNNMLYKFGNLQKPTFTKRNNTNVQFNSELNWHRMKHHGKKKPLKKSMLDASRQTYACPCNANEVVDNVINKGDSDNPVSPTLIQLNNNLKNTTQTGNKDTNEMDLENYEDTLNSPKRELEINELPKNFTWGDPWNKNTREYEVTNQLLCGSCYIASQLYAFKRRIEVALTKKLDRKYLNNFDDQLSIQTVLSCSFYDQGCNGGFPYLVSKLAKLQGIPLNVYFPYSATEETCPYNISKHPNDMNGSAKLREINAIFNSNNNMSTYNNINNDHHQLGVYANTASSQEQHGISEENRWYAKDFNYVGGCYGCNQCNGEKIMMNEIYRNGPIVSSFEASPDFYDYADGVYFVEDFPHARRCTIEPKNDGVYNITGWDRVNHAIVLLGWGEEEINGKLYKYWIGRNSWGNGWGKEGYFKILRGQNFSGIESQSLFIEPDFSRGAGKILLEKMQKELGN
Design: species or system P. falciparum D10 trophozoite lysates; single well
In the case of `CC(N)Cc1ccccc1Sc1ccccc1O` (stereo not drawn), the “% Inhibition @ 10 uM” value is reported as -4.54%.
In the case of `O=C(NCc1cccnc1)c1ccc(COc2cccc3ccccc23)o1`, the “% Inhibition @ 10 uM” value is reported as 7.76%.
For `CCN(CC)C(=O)C1CCCN(Cc2cc(Br)cs2)C1` (stereo not drawn), the “% Inhibition @ 10 uM” value was -2.81%.
For `Cc1ccc(/C=C(\C#N)c2nc(-c3ccc(C)cc3)cs2)cc1`, the “% Inhibition @ 10 uM” value was -4.08%.
`Cc1ccc2c(=O)c(C(=O)c3cccc(Cl)c3)cn(CC(=O)NCCC3=CCCCC3)c2n1` was tested, and the “% Inhibition @ 10 uM” value was 1.02%.
In the case of `CC(C)OP(=O)(Cc1cccc(C#N)c1)OC(C)C`, the “% Inhibition @ 10 uM” value is reported as 3.06%.
`CC1CCN(S(=O)(=O)c2ccc3c(ccn3CC(=O)O)c2)CC1` was tested, and the “% Inhibition @ 10 uM” value was 1.42%.
`CCN(CC)S(=O)(=O)c1ccc(NC(=O)C(C)Oc2ccc(Cl)cc2Cl)cc1` (stereo not drawn) was tested, and the “% Inhibition @ 10 uM” value was 1.62%.
With `Cc1ccc(-n2nnc3c(=O)n(Cc4ccc(C(F)(F)F)cc4)cnc32)cc1` the “% Inhibition @ 10 uM” value was -2.16%.
For `CCOC(=O)C1=C(CS(=O)(=O)c2ccc(F)c(C)c2)NC(=O)NC1c1ccc(OCC)cc1` (stereo not drawn), the “% Inhibition @ 10 uM” value was -0.431%.
In the case of `CCC(C)NC(=O)CN(c1ccc(OC)cc1OC)S(C)(=O)=O` (stereo not drawn), the “% Inhibition @ 10 uM” value is reported as 3.67%.
For `O=C(Nc1nc(C(F)(F)F)c(-c2ccccc2)s1)c1ccccc1F`, the “% Inhibition @ 10 uM” value was 6.5%.
`COc1ccc(C(=O)C2=C(O)C(=O)N(Cc3cccnc3)C2c2cccc(Br)c2)c(C)c1` (stereo not drawn) was tested, and the “% Inhibition @ 10 uM” value was -1.6%.
With `CCN(CC)S(=O)(=O)c1c(Br)cc(C)cc1Br` the “% Inhibition @ 10 uM” value was 3.42%.
In the case of `CC(CP(=O)(O)O)NC(=O)Cc1ccccc1` (stereo not drawn), the “% Inhibition @ 10 uM” value is reported as -0.615%.
With `COCCn1c(Cc2cccn2C)nnc1SCC(=O)NC1CCCCC1` the “% Inhibition @ 10 uM” value was -3.37%.
For `C=CC[n+]1c(C)c2cc(Cl)c(Cl)cc2n1C`, the “% Inhibition @ 10 uM” value was -0.85%.
For `CN(C)CC(C)(C)CNC1CCC(c2ccccc2)CC1` (stereo not drawn), the “% Inhibition @ 10 uM” value was 0.472%.
With `CCOC(=O)c1[nH]cc(-c2ccccc2)c1N1CCOCC1` the “% Inhibition @ 10 uM” value was 0.708%.
In the case of `CCOc1ccccc1C(=O)Nc1ccccc1Br`, the “% Inhibition @ 10 uM” value is reported as -5.82%.
With `CCn1c(=O)c(C(=O)Nc2nc(-c3ccc(Cl)cc3)cs2)c(O)c2ccccc21` the “% Inhibition @ 10 uM” value was -2.22%.
With `Cc1nn(-c2nc3ccccc3s2)c(O)c1-c1cc(O)c2ccccc2n1` the “% Inhibition @ 10 uM” value was -4.68%.
With `CN(C1CCCCC1)S(=O)(=O)N1CCCC(C(=O)N2CCC(C(N)=O)CC2)C1` (stereo not drawn) the “% Inhibition @ 10 uM” value was -5.61%.
For `CCCCNC(=O)Cc1coc2ccc3ccccc3c12`, the “% Inhibition @ 10 uM” value was -0.473%.
With `CCc1ccc(-n2nnc(-c3nsc(NC(=O)c4ccc(OC)cc4)n3)c2C)cc1` the “% Inhibition @ 10 uM” value was 1.11%.
In the case of `O=C(O)c1cc2n(n1)C(C(F)(F)F)CC(c1ccccc1)N2` (stereo not drawn), the “% Inhibition @ 10 uM” value is reported as -1.32%.
`CCOC(=O)C1CCN(C2CC3CCC2C3)CC1` (stereo not drawn) was tested, and the “% Inhibition @ 10 uM” value was -2.95%.
For `Cc1cccc(OCCCN2CCCC2)c1`, the “% Inhibition @ 10 uM” value was -0.546%.
With `O=C1OC(c2ccc(-c3ccccc3)cc2)=N/C1=C\c1coc2ccccc2c1=O` the “% Inhibition @ 10 uM” value was 3.64%.
With `N#CC1=C(N)Oc2cc(O)c(Cl)cc2C1c1ccccc1F` (stereo not drawn) the “% Inhibition @ 10 uM” value was -1.25%.
With `O=C(CCn1cc(Br)cn1)Nc1ccn(Cc2ccccc2)n1` the “% Inhibition @ 10 uM” value was -2.85%.
In the case of `CCNC(=O)/C(=C\c1ccc(OC)cc1)NC(=O)c1ccccc1Br`, the “% Inhibition @ 10 uM” value is reported as 0.746%.
In the case of `CCN(CC)c1ccc2c(c1)oc(=O)c1c(Cl)cc(=O)oc12`, the “% Inhibition @ 10 uM” value is reported as -3.5%.
For `COc1cccc(C2Nc3ccccc3N=C3CC(C)(C)CC(O)=C32)c1` (stereo not drawn), the “% Inhibition @ 10 uM” value was -4.4%.
`Cc1cc(C(=O)NCC(C)c2ccccc2)c2c(C)nn(-c3ccccc3)c2n1` (stereo not drawn) was tested, and the “% Inhibition @ 10 uM” value was 0.44%.
With `N#Cc1c(N)nc2c(c1-c1ccsc1)CCCC2` the “% Inhibition @ 10 uM” value was -2.81%.
With `CCSc1nnc(NC(=O)CSc2nc3c(c(=O)n2C)SCC3)s1` the “% Inhibition @ 10 uM” value was 0.205%.
`C=CCNC(=O)/C(C#N)=C/c1c(Oc2ccc(Br)cc2)nc2c(C)cccn2c1=O` was tested, and the “% Inhibition @ 10 uM” value was -7.04%.
With `Cc1cccn2c(=O)c(/C=N/C(C)c3ccccc3)c(NC(C)c3ccccc3)nc12` (stereo not drawn) the “% Inhibition @ 10 uM” value was -3.63%.
In the case of `CCC1CCCCN1CCCNc1nc2ccccc2c2nc(-c3ccccc3)nn12` (stereo not drawn), the “% Inhibition @ 10 uM” value is reported as 0.981%.
In the case of `CCN(CC)C(=O)c1sc(NC(=O)c2cc3ccccc3c(=O)o2)c(C(=O)OC(C)C)c1C`, the “% Inhibition @ 10 uM” value is reported as -3.13%.
In the case of `CCCCc1ccc(-c2csc(/C(C#N)=C/c3ccco3)n2)cc1`, the “% Inhibition @ 10 uM” value is reported as 4.63%.
With `Cc1ccnc(NC(=O)c2cccc(F)c2)c1` the “% Inhibition @ 10 uM” value was -1.19%.
For `Cc1nc2c(oc3ccccc32)c(=O)o1`, the “% Inhibition @ 10 uM” value was 10.9%.
For `COc1ccc(NC(=O)c2ccc(C)o2)c(OC)c1`, the “% Inhibition @ 10 uM” value was 4.11%.
For `CCSc1sc(CC)cc1C(N)=O`, the “% Inhibition @ 10 uM” value was 6.49%.
In the case of `CCn1c2ccccc2c2nnc(NCc3ccccc3OC)nc21`, the “% Inhibition @ 10 uM” value is reported as -3.73%.
In the case of `O=C(Cn1cnc2onc(-c3ccc(F)cc3)c2c1=O)N1CCN(Cc2ccccc2)CC1`, the “% Inhibition @ 10 uM” value is reported as -5.13%.
`COc1ccc(OC)c(NC(=O)c2cncc(Br)c2)c1` was tested, and the “% Inhibition @ 10 uM” value was -0.884%.
`Nc1nc(Nc2ccccc2O)nc2ccccc12` was tested, and the “% Inhibition @ 10 uM” value was -2.29%.
`Cc1c2cnn(CC(=O)NC(C)C34CC5CC(CC(C5)C3)C4)c(=O)c2c(C)n1Cc1ccccc1` (stereo not drawn) was tested, and the “% Inhibition @ 10 uM” value was -5.81%.
